Source: the antibiotic and cytotoxicity screens of Wong et al. (2023)
The other results are listed elsewhere or left out.

Experiments:
HSkMC = human skeletal muscle cells; assay: cytotoxicity call (relative viability < 0.9); conditions: 10 µM
HepG2 = assay: cytotoxicity call (relative viability < 0.9); conditions: 10 µM
S. aureus RN4220 = assay: growth inhibition call (relative growth <= 0.2); conditions: 50 µM

| Structure (SMILES) | cytotoxicity call (HSkMC) | cytotoxicity call (HepG2) | growth inhibition call (S. aureus RN4220) |
| --- | --- | --- | --- |
| O=C(C[C@H]1C[C@H]2c3cc(NC(=O)c4ccc5c(c4)OCO5)ccc3O[C@H]2[C@H](CO)O1)NCc1ccccn1 | inactive | inactive | inactive |
| CO[C@@H]1CN(C)C(=O)c2ccc(NS(=O)(=O)c3cn(C)cn3)cc2OC[C@H](C)N(CC2CC2)C[C@H]1C | inactive | inactive | inactive |
| Cn1nnc2cc(CO)ccc21 | inactive | inactive | inactive |
| C[C@@H]1CN([C@@H](C)CO)S(=O)(=O)c2ccc(C#CC3(O)CCCC3)cc2O[C@H]1CN(C)C(=O)c1ccccc1 | inactive | inactive | inactive |
| O=C(C[C@@H]1CC[C@H]2[C@@H](COC[C@H](O)CN2C(=O)Nc2ccc(F)cc2)O1)NCCCN1CCOCC1 | inactive | inactive | inactive |
| C[C@H](CO)N1C[C@H](C)[C@H](CN(C)C(=O)Nc2ccc(F)cc2)OCCCC[C@H](C)Oc2ccc(NC(=O)C3CCCCCC3)cc2C1=O | inactive | inactive | inactive |
| C[C@H](CO)N1C[C@H](C)[C@@H](CN(C)CC2CCCCC2)Oc2ccc(NC(=O)Nc3cccc4ccccc34)cc2CC1=O | inactive | inactive | inactive |
| CCCN(C)C[C@@H]1Oc2cc(C#Cc3cccc(OC)c3)ccc2S(=O)(=O)N([C@@H](C)CO)C[C@@H]1C | inactive | inactive | inactive |
| O=C(Cn1cnnn1)NS(=O)(=O)c1ccccc1 | inactive | inactive | inactive |
| Fc1ccc(C2=NNC3=NCCN3C2)cc1F | inactive | inactive | inactive |
| Cc1noc(C)c1S(=O)(=O)N(C)C[C@H]1Oc2ccc(NS(=O)(=O)c3ccccc3)cc2CC(=O)N([C@H](C)CO)C[C@H]1C | inactive | inactive | inactive |
| CC(=O)C1C(=O)C=C(C)OC1=O (stereo unspecified) | inactive | inactive | inactive |
| C[C@H]1CN([C@@H](C)CO)C(=O)c2cc(C#Cc3ccc(F)cc3)cnc2O[C@@H]1CN(C)Cc1ccccn1 | inactive | inactive | inactive |
| COc1ccc(S(=O)(=O)Nc2ccc3c(c2)CC(=O)N([C@@H](C)CO)C[C@@H](C)[C@@H](CN(C)S(=O)(=O)c2ccc(OC)cc2)O3)cc1 | inactive | inactive | inactive |
| C[C@H]1CCCCO[C@@H](CN(C)Cc2ccc(C(=O)O)cc2)[C@@H](C)CN([C@@H](C)CO)C(=O)c2cc(NS(=O)(=O)c3ccc(Cl)cc3)ccc2O1 | inactive | inactive | inactive |
| Cc1cc(C(C)(C)C)cc(C)c1CC1=NCCN1.Cl | inactive | inactive | inactive |
| CCC1OC(=O)C(C)C(OC2CC(C)(OC)C(O)C(C)O2)C(C)C(OC2OC(C)CC(N(C)C)C2O)C(C)(O)CC(C)C(=O)C(C)C(O)C1(C)O.CCCCCCCCCCCCCCCCCC(=O)O (stereo unspecified) | inactive | inactive | inactive |
| COc1ccc(S(=O)(=O)Nc2ccc3c(c2)C(=O)N([C@H](C)CO)C[C@@H](C)[C@@H](CN(C)C(=O)C2CCCCC2)OCCCC[C@@H](C)O3)cc1 | inactive | inactive | inactive |
| CO[C@@H]1CN(C)C(=O)c2cc(NS(=O)(=O)CC(F)(F)F)ccc2OC[C@@H](C)N(C(=O)c2ccc3c(c2)OCO3)C[C@@H]1C | inactive | inactive | inactive |

| Structure (SMILES) | cytotoxicity call (HSkMC) | cytotoxicity call (HepG2) | growth inhibition call (S. aureus RN4220) |
| --- | --- | --- | --- |
| C[C@H](CO)N1C[C@H](C)[C@@H](CN(C)C(=O)Nc2ccc3c(c2)OCO3)Oc2ccc(NS(C)(=O)=O)cc2C1=O | inactive | inactive | inactive |
| C[C@H](CO)N1C[C@H](C)[C@@H](CN(C)S(=O)(=O)c2cn(C)cn2)OCCCC[C@H](C)Oc2ccc(NS(=O)(=O)c3ccc(F)cc3)cc2C1=O | inactive | inactive | inactive |
| Cc1noc(C)c1NC(=O)N(C)C[C@@H]1Oc2c(NC(=O)C3CC3)cccc2C(=O)N([C@@H](C)CO)C[C@H]1C | inactive | inactive | inactive |
| COc1cc(C(=O)OCCN2CCN(CCOC(=O)c3cc(OC)c(OC)c(OC)c3)CC2)cc(OC)c1OC | inactive | inactive | inactive |
| NC(=O)C1CCN(C(=O)c2ccc(NC3=N[C@H]4CS(=O)(=O)C[C@@H]4S3)cc2)CC1 | inactive | inactive | inactive |
| C[C@H]1CN([C@@H](C)CO)C(=O)c2ccccc2-c2ccccc2CO[C@H]1CN(C)Cc1ccccc1C(F)(F)F | inactive | inactive | inactive |
| C[C@@H]1CCCCO[C@@H](CN(C)C(=O)c2ccccc2)[C@H](C)CN([C@H](C)CO)C(=O)c2cc(NS(=O)(=O)c3ccc(F)cc3)ccc2O1 | inactive | inactive | inactive |
| COc1cccc(NC(=O)N2C[C@H](O)COC[C@H]3O[C@@H](CC(=O)NCCCN4CCOCC4)CC[C@@H]32)c1 | inactive | inactive | inactive |
| COCC(=O)NCc1n[nH]c(=O)c2ccccc12 | inactive | inactive | inactive |
| C[C@H](CO)N1C[C@H](C)[C@@H](CN(C)Cc2ccc(C(=O)O)cc2)Oc2ccc(NC(=O)CCN3CCOCC3)cc2CC1=O | inactive | inactive | inactive |
| C[C@@H]1CCCCO[C@H](CN(C)CC2CC2)[C@@H](C)CN([C@H](C)CO)C(=O)c2cc(NS(=O)(=O)c3ccc(Cl)cc3)ccc2O1 | inactive | inactive | inactive |
| CCCCCCCCCCCCCCCCCC(=O)O | inactive | inactive | inactive |
| COc1ccccc1C#Cc1cnc2c(c1)C(=O)N([C@H](C)CO)C[C@@H](C)[C@H](CN(C)S(=O)(=O)c1cn(C)cn1)O2 | active | active | inactive |
| C[C@H](CO)N1C[C@H](C)[C@H](CN(C)Cc2ccc(C(=O)O)cc2)Oc2ccc(NC(=O)c3ccncc3)cc2CC1=O | inactive | inactive | inactive |
| CC[C@@H](C)NC(=O)Cn1cnc2c1c(=O)n(C)c(=O)n2C | inactive | inactive | inactive |
| Cc1ccc(S(=O)(=O)C[C@H]2O[C@@H](n3cc(I)c(=O)[nH]c3=O)C[C@@H]2O)cc1 | inactive | inactive | inactive |
| C[C@@H]1CN([C@H](C)CO)C(=O)Cc2cc(NC(=O)CCCN(C)C)ccc2O[C@@H]1CN(C)S(=O)(=O)c1ccc(Cl)cc1 | inactive | inactive | inactive |
| CCOCCn1c(N2CCCN(C)CC2)nc2ccccc21.O=C(O)C=CC(=O)O.O=C(O)C=CC(=O)O | inactive | inactive | inactive |
| CC1CCC2(C)C(C=O)=CCCC2C1(C)CC1OC(O)C(=O)C12CO2 (stereo unspecified) | inactive | active | active |

| Structure (SMILES) | cytotoxicity call (HSkMC) | cytotoxicity call (HepG2) | growth inhibition call (S. aureus RN4220) |
| --- | --- | --- | --- |
| CCCCCCCCCCCC(=O)OCN1C(=O)CCc2ccc(OCCCCN3CCN(c4cccc(Cl)c4Cl)CC3)cc21 | inactive | inactive | inactive |
| Cc1ccc(S(=O)(=O)Nc2ccc3c(c2)C(=O)N([C@@H](C)CO)C[C@@H](C)[C@H](CN(C)Cc2ccc4c(c2)OCO4)OCCCC[C@H](C)O3)cc1 | inactive | inactive | inactive |
| C[C@@H]1CN([C@H](C)CO)C(=O)c2cc(NC(=O)CCCCCC(=O)Nc3ccccc3N)ccc2O[C@@H]1CN(C)Cc1ccc(Oc2ccccc2)cc1 | inactive | active | inactive |
| C[C@@H]1CN([C@@H](C)CO)C(=O)Cc2cc(NC(=O)Cn3cnnn3)ccc2O[C@@H]1CN(C)S(=O)(=O)c1cccs1 | inactive | inactive | inactive |
| C[C@@H]1CN([C@@H](C)CO)C(=O)c2cc(NC(=O)Nc3ccc(C(F)(F)F)cc3)ccc2O[C@H]1CN(C)Cc1ccc(C(F)(F)F)cc1 | active | active | inactive |
| C[C@@H]1CN([C@H](C)CO)C(=O)c2cc(NC(=O)NC3CCCCC3)ccc2O[C@@H](C)CCCCO[C@@H]1CN(C)C(=O)C1CCCCC1 | inactive | inactive | inactive |
| C[C@@H]1CCCCO[C@@H](CN(C)S(=O)(=O)c2ccc(F)cc2)[C@H](C)CN([C@H](C)CO)C(=O)c2cc(NC(=O)Nc3ccc(C(F)(F)F)cc3)ccc2O1 | inactive | inactive | inactive |
| COc1ccc2c3c([nH]c2c1)[C@H](CO)N(C[C@]13CN(Cc2cc(on2)-c2ccccc2)C1)C(=O)Nc1ccc(cc1)F | active | inactive | inactive |
| COc1ccc(NC(=O)N(C)C[C@H]2OCCCC[C@@H](C)Oc3ccc(NS(=O)(=O)c4ccccc4)cc3C(=O)N([C@H](C)CO)C[C@@H]2C)cc1 | inactive | inactive | inactive |
| C[C@H]1CN([C@@H](C)CO)C(=O)Cc2cc(NC(=O)Cc3cn(C)c4ccccc34)ccc2O[C@@H]1CN(C)C(=O)Nc1cccc2ccccc12 | inactive | inactive | inactive |
| COc1ccc(-c2cc3c(c(CCc4ccccc4)n2)[Si](C(C)C)(C(C)C)O[C@H]3c2ccccc2)cn1 | inactive | inactive | inactive |
| C[C@H](CO)N1C[C@H](C)[C@@H](CN(C)CC2CCCCC2)OCCCC[C@H](C)Oc2ccc(NC(=O)c3ccccc3)cc2C1=O | inactive | inactive | inactive |
| C[C@@H]1CN([C@H](C)CO)C(=O)Cc2cc(NC(=O)Nc3cccc4ccccc34)ccc2O[C@H]1CN(C)S(=O)(=O)c1cccs1 | inactive | inactive | inactive |
| C[C@H]1CN([C@@H](C)CO)C(=O)c2cc(NC(=O)Cn3cnnn3)ccc2O[C@@H]1CN(C)Cc1ccc(-c2ccccc2)cc1 | inactive | inactive | inactive |
| CNc1nc(SCC(N)=O)nc(N2CCOCC2)n1 | inactive | active | inactive |
| O=C(C[C@H]1C[C@@H]2c3cc(NC(=O)Nc4ccccc4F)ccc3O[C@@H]2[C@@H](CO)O1)NCc1ccc(Oc2ccccc2)cc1 | inactive | inactive | inactive |
| C[C@H](CO)N1C[C@H](C)[C@@H](CN(C)Cc2ccc(Cl)c(Cl)c2)Oc2c(NS(=O)(=O)c3ccc(F)cc3)cccc2C1=O | inactive | inactive | inactive |
| Cc1ccccc1OCC(O)CO (stereo unspecified) | inactive | active | inactive |
| COc1ccc(S(=O)(=O)N(C)C[C@@H]2OCCCC[C@@H](C)Oc3ccc(NC(=O)Nc4ccc(F)cc4)cc3C(=O)N([C@@H](C)CO)C[C@H]2C)cc1 | inactive | inactive | inactive |
